According to PubChem BioAssay AID1477 (National Center for Advancing Translational Sciences (NCATS), 2009):
Out of some 230,000 compounds screened, fewer than 10 were called active. Inconclusive means that the source gave no clear call. Such entries were picked first, then a sample of the others. Calls follow the shape of the dose curve; as a rule, active = well fitted curve in the direction sought with a large enough effect; inconclusive = small, poorly fitted or top-dose-only effect, or effect the other way, or another doubt; inactive = no such curve, though single readings can be large or run the other way. Potencies of inconclusive entries are left out as doubtful fits.

Biological target: Runt-related transcription factor 1 (Homo sapiens) + Core-binding factor subunit beta (Homo sapiens) (UniProt Q01196+Q13951)
UniProt Q01196, sequence (Q01196 whole entry, looked up): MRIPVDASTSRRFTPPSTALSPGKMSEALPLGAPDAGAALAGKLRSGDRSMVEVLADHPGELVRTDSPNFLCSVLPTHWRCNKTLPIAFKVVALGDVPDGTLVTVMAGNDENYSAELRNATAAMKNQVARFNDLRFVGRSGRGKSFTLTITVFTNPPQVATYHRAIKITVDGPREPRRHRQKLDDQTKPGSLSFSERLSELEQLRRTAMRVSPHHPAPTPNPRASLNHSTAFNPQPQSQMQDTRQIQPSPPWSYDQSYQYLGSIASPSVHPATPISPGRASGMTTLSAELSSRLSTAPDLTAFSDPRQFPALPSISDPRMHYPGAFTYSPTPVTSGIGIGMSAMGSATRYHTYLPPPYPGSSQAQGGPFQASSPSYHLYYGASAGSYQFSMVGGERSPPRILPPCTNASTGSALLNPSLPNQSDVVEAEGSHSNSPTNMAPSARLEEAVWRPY
UniProt Q01196, sequence (Q13951 whole entry, looked up): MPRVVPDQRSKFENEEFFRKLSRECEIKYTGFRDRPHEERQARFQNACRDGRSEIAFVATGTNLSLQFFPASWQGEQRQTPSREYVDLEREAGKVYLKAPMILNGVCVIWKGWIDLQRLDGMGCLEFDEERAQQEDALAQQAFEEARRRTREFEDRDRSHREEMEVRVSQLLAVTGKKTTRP
Assay: qHTS Assay for Compounds Blocking the Interaction Between CBF-beta and RUNX1 for the Treatment of Acute Myeloid Leukemia; as to activity, negative = inhibition: % of control where 0% means no effect
Conditions: AlphaScreen CBFb-His/RUNX1-biotin binding, biochemical; activity, negative = inhibition: at 59.8 µM (top of the series) unless noted
Method in brief: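 AlphaScreen binding: CBFb-His and RUNX1-biotin (30 nM each) preincubated 20 min, compound added for 15 min, then nickel and streptavidin beads for 90 min, all at room temperature. Disruption of the interaction by any mechanism counts as activity.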

SMILES	Potency	activity, negative = inhibition
Cc1ccc(C(=O)N2CCN(c3ccc([N+](=O)[O-])cc3-n3cccc3)CC2)cc1	inconclusive [inhibitor, single point]	–
O=C(Nc1cccc2c1CCCC2)C1CCN(c2nnnn2-c2ccccc2)CC1	inactive	–
COc1ccccc1-c1nc2cc3ccccc3cc2nc1-c1ccccc1	inconclusive [activator, single point]	–
Oc1c(C(c2ccccc2Cl)N2CCCC2)ccc2cccnc12 (stereo not given)	inconclusive [inhibitor, single point]	–
Cc1ccc2c(c1)nnn2C1CCN(CC(=O)NNC(=O)c2ccco2)CC1	inactive	–
N#Cc1cnn2ccc(-c3ccc4c(c3)CCC4)nc12	inconclusive [activator, single point]	–
Cc1ncc([N+](=O)[O-])n1CCOC(=O)c1cc(Cl)cc(Cl)c1N	inconclusive [inhibitor, partial curve, poor fit]	–
O=C(O)c1ccc(N2C(=O)/C(=C/c3ccc(-c4ccc([N+](=O)[O-])cc4)o3)C=C2c2ccccc2)cc1	inconclusive [inhibitor, single point]	–
CN1C(=O)C2(c3ccccc31)C1CCCC=C1C(C#N)=C(N)C2(C#N)C#N (stereo not given)	inactive	–
COc1ccc(CC(NC(C)=O)C(=O)NC2CCN(c3nnnn3-c3ccccc3)CC2)cc1 (stereo not given)	inactive	–
CO/N=C/c1ccc(Oc2ccc([N+](=O)[O-])cc2[N+](=O)[O-])c(OC)c1	inconclusive [inhibitor, single point]	–
CCC(Sc1ccc(C(=O)O)cc1)C(=O)O (stereo not given)	inactive	–
COc1cc(OC)c2c(-c3cccc(-c4ccc(O)cc4)c3)cc(=O)oc2c1	inactive	–
COc1ccc(CC(=O)c2ccc(O)cc2O)cc1	inconclusive [activator, full curve, poor fit]	–
COc1ccccc1CNC(=O)CSc1ccc(C)cc1	inactive	–
CCOC(=O)/C(C(=O)Nc1ccc(Cl)cc1Cl)=C1/NC(C)(C)Cc2ccccc21	inactive	–
CC(C)(C)NC[C@@H](O)COc1ccccc1C1CCCC1	inactive	–
CCSc1nnc(-c2cc3c(s2)-c2ccccc2CC3)o1	inconclusive [activator, partial curve]	–
Cc1ccc(N2CCN(CCCN3C(=O)C4CCCN4C3=O)CC2)cc1 (stereo not given)	inconclusive [inhibitor, single point]	–
O=C(NCc1cccnc1)c1ccc(-c2cccc(Cl)c2Cl)o1	inactive	–
Cc1cccc2c1-c1sc(C(=O)Nc3ccccc3N3CCN(C)CC3)cc1CO2	inconclusive [activator, partial curve]	–
CC(C)CNS(=O)(=O)c1ccc(CCC(=O)N2CCN(c3ccc(F)cc3)CC2)cc1	inactive	–
Cc1cccc(NC(=O)CSc2ccc(-c3ccccn3)nn2)c1C	inconclusive [inhibitor, partial curve]	–
O=C(c1ccc(C(F)(F)F)cc1)C1CCCN(Cc2ccc(CO)o2)C1 (stereo not given)	inconclusive [activator, single point]	–

SMILES	Potency	activity, negative = inhibition
Cc1cc(C)cc(N=c2c([N+](=O)[O-])nn(-c3ccc(Cl)cc3)n2O)c1	inconclusive [inhibitor, single point]	–
CC(C)Cn1nc(NC(=O)c2cccs2)c2cc3ccccc3nc21	inconclusive [activator, partial curve]	–
CN=c1scc(-c2cc(OC)ccc2OC)n1/N=C/c1c(C)[nH]c2ccccc12	inconclusive [inhibitor, single point]	–
CC1=C(C(=O)OCC2CCCO2)C(c2coc3ccccc3c2=O)C2=C(CCCC2=O)N1 (stereo not given)	inconclusive [inhibitor, partial curve]	–
Nc1cc(N)nc(SCc2cc([N+](=O)[O-])cc3c2OCOC3)n1	inconclusive [inhibitor, single point]	–
O=C(Nc1nnc(C2=COCCO2)o1)c1ccc(S(=O)(=O)N2CCCC2)cc1	inconclusive [inhibitor, full curve, poor fit]	–
O=C(CSc1nnnn1-c1ccccc1)NC(=O)NCc1ccco1	inconclusive [inhibitor, partial curve]	–
Cc1ccccc1C(=O)Nc1ccccc1N1CCCCC1	inactive	–
CCOC(=O)c1ccc(N2C(=O)c3n[nH]c(-c4ccco4)c3C2c2cccc([N+](=O)[O-])c2)cc1 (stereo not given)	inconclusive [inhibitor, single point]	–
CCCOc1ccc2c(CC)cc(=O)oc2c1C	inconclusive [activator, single point]	–
C/C(CCC(=O)OC[C@@H]1O[C@H](C#Cc2ccccc2)C=C[C@@H]1Oc1ccc(C)cc1)=N/OC[C@@H](C)[C@H](OCc1ccccc1)C(C)C	–	inactive: 22.3% [at 13.1 µM]
CCN1C(=O)C(=C/C=C/c2ccco2)C(=O)N(CC)C1=S	inconclusive [inhibitor, single point]	–
CCCCCc1nc2c(C#N)c(-c3ccc(Cl)cc3)ccn2n1	inactive	–
O=C(O)/C=C/C(=O)NC1CCS(=O)(=O)C1 (stereo not given)	inconclusive [activator, full curve, poor fit]	–
Cn1c(C(=O)NC2CC2)cc2c(=O)n(C)c3ccccc3c21	inactive	–
OC(COc1ccc(Cl)cc1)CN1CCN(c2cccc(Cl)c2)CC1 (stereo not given)	inactive	–
CCCCN1C=C(C(=O)OC)C(c2ccccc2Cl)C(C(=O)OC)=C1	inconclusive [activator, partial curve]	–
Cc1ccc(C(c2ccc(C)o2)c2cccc([N+](=O)[O-])c2O)o1	inconclusive [inhibitor, single point]	–
CN(C)N=C1c2cc(S(=O)(=O)N3CCOCC3)ccc2-c2ccc(S(=O)(=O)N3CCOCC3)cc21	inconclusive [inhibitor, full curve]	–
CCOc1cccc(OCC)c2c(C)[n+](CC3CCCO3)c(C)c1-2 (stereo not given)	inconclusive [inhibitor, single point]	–
c1ccc2c(c1)OCC(C1=NCCN1)O2 (stereo not given)	inconclusive [inhibitor, full curve, poor fit]	–
COc1ccc2c(c1)CCc1c(C(=O)NCCCn3ccnc3)noc1-2	inconclusive [inhibitor, single point]	–
CN(C)c1ccc(/C=C2\N=C(c3ccc(Cl)c([N+](=O)[O-])c3)NC2=O)cc1	inconclusive [inhibitor, partial curve, poor fit]	–
CC(Oc1ccc(Cl)cc1Cl)C(=O)NN=C1CCN(C)CC1 (stereo not given)	inactive	–

SMILES	Potency	activity, negative = inhibition
Cn1ncc(Cl)c1C(=O)N1CCOCC1	inconclusive [activator, full curve, poor fit]	–
COc1cccc(Cn2nnc3c(=O)[nH]c(C4CCCN(C(=O)c5ccccc5Cl)C4)nc32)c1 (stereo not given)	inactive	–
CCN(CC)CCNC(=O)c1[nH]c2ccc(OCc3ccccc3)cc2c1C	inconclusive [inhibitor, partial curve]	–
Cn1nnnc1SCC1=C(C(=O)O)N2C(=O)C(NC(=O)C3CC3c3ccccc3)C2SC1 (stereo not given)	inconclusive [inhibitor, full curve, poor fit]	–
O=C1C(=C2CCCCC2)SC(=S)N1Cc1ccco1	inconclusive [inhibitor, single point]	–
Cc1ccc(OCCC(=O)OCC(=O)NCCc2ccccc2)cc1	inactive	–
CCn1c(=NC(=O)c2ccc(S(=O)(=O)N(C)C)cc2)sc2cccc(OC)c21	inconclusive [activator, full curve, poor fit]	–
CCCCC1=CC2=C(c3ccco3)C(=O)C(C)(OC(=O)c3ccc(OC)cc3)C(=O)C2=CN1CCCN(CC)CC (stereo not given)	inconclusive [inhibitor, single point]	–
C=CCNC(=O)C1CCC(C(=O)NCC=C)CC1 (stereo not given)	inconclusive [inhibitor, single point]	–
NS(=O)(=O)c1cccc(NC(=O)Cc2ccc(Cl)c(Cl)c2)c1	inactive	–
Cc1ccccc1C(=O)Nc1ccc(N2CCCCCC2)cc1	inconclusive [inhibitor, single point]	–
C/C(=N\NC(=O)Cc1ccc(Cl)cc1)c1ccccn1	inconclusive [inhibitor, single point]	–
CC(=O)c1ccc2c(c1)C1C(Cl)C(Sc3ccccc3[N+](=O)[O-])CC1C(C(=O)O)N2 (stereo not given)	inconclusive [inhibitor, partial curve]	–
Cc1sc2ncnc(NCCc3ccc(S(N)(=O)=O)cc3)c2c1C	inactive	–
Cc1ccc(N2CC(C(=O)NCc3ccc4c(c3)OCO4)CC2=O)cc1C (stereo not given)	inactive	–
COc1ccccc1N1CCN(CCN2C(=O)CC3(CCCC3)CC2=O)CC1	inconclusive [activator, full curve, poor fit]	–
Cc1ccccc1N1C(=O)C(Cl)=C(N2CCCCCC2)C1=O	inconclusive [activator, single point]	–
O=C(Nc1ccccc1OC(=O)N1CCCCC1)N1CCCCC1	inactive	–
CC[C@H](C)N(C)C(=O)c1cc2ccccc2c(-c2ccccc2Cl)n1	inactive	–
CCCCNC(=O)NNC(=O)c1ccco1	inactive	–
COC(=O)Cc1ccc(NC(=O)c2ccccc2Cl)cc1	inactive	–
O=C(Nc1nc2ccc(F)cc2s1)c1ccccn1	inconclusive [inhibitor, partial curve]	–
